# Laboratory results taken from the supplement of paper PMC9446081.
# The campaign covered roughly 39,000 compounds. About 220 (0.56%) showed activity. The list shows a part of the results.
# System: Escherichia coli K-12 BW25113
# Assay: relative growth (OD600 normalised to plate interquartile mean) (fraction); higher = less growth inhibition, active = 0.2 or less
# Settings: 50 µM; LB; incubation time: overnight (16-24 h)
# 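Note: static incubation at 37 °C against the wild-type strain, values averaged over two biological replicates.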
row,Compound,relative growth
1,CC(C)(O/N=C(\C(=O)N[C@@H]1C(=O)N2C(C(=O)O)=C(C[n+]3ccccc3)CS[C@H]12)c1csc(N)n1)C(=O)O,active: 0.0433
2,NC(=O)NCC#Cc1ccc2c(c1)[C@]1(C(=O)N2)[C@H](c2ccc(OCCO)cc2)N2[C@H](c3ccccc3)[C@H](c3ccccc3)OC(=O)[C@H]2[C@@H]1C(=O)N1CCCCCCC1,inactive: 1.04
3,CO[C@@H]1CN(C)C(=O)c2ccc(NS(=O)(=O)CC(F)(F)F)cc2OC[C@@H](C)N(Cc2ccccn2)C[C@H]1C,inactive: 0.979
4,COc1ccc([Si](C)(C)[C@H]2[C@H](CCOC(=O)NCCCCCC(=O)NO)O[C@]3(C(=O)N(Cc4ccccc4)c4ccc(NC(=O)[C@@H](C)OC(=O)NCCCCCC(=O)NO)cc43)[C@@H]2C)cc1,inactive: 0.953
5,C[C@@H]1CN([C@H](C)CO)C(=O)c2cccc(NC(=O)c3ccc(-c4nccs4)cc3)c2O[C@H]1CN(C)Cc1ccc(Oc2ccccc2)cc1,inactive: 1.05
6,COc1ccc(S(=O)(=O)Nc2ccc3c(c2)C(=O)N([C@@H](C)CO)C[C@H](C)[C@@H](CN(C)CC2CC2)O3)cc1,inactive: 0.995
7,CN(C)CCCN1C(=O)[C@@H]2[C@@H](C1=O)[C@@H]1C=C[C@@H]2C1,inactive: 1.01
8,C[C@@H]1O[C@H](O)[C@@H](F)[C@H](O)[C@@H]1O,inactive: 1.02
9,C[C@@H]1CN([C@H](C)CO)C(=O)Cc2cc(NS(=O)(=O)c3ccccc3)ccc2O[C@H]1CN(C)Cc1ccc(Oc2ccccc2)cc1,inactive: 0.972
10,NCc1ccc(-c2ccccc2O)cc1,inactive: 0.978
11,O=C1NC(=S)NC12CCCCC2,inactive: 0.965
12,COc1ccc(NC(=O)Nc2ccc3c(c2)C(=O)N([C@@H](C)CO)C[C@@H](C)[C@H](CN(C)S(C)(=O)=O)O3)cc1,inactive: 0.983
13,Cc1noc(C)c1S(=O)(=O)Nc1ccc2c(c1)C(=O)N([C@H](C)CO)C[C@H](C)[C@H](CN(C)C(=O)Nc1ccccc1)O2,inactive: 0.886
14,C[C@H](CO)N1C[C@H](C)[C@H](CN(C)C(=O)Nc2ccc(C(F)(F)F)cc2)Oc2c(NC(=O)Nc3ccc(C(F)(F)F)cc3)cccc2C1=O,inactive: 1.01
15,C[C@@H]1CN([C@@H](C)CO)C(=O)c2cc(N(C)C)ccc2O[C@@H](C)CCCCO[C@H]1CN(C)S(=O)(=O)c1cn(C)cn1,inactive: 0.885
16,CCOC(=O)C1CCN(S(=O)(=O)c2c(C)n(C)c(=O)n(C)c2=O)CC1,inactive: 0.984
17,CN1CCN2CCN(C(=O)c3cccc(N)c3)C[C@@H]2C1=O,inactive: 1.03
